According to PubChem BioAssay AID463173 (ICCB-Longwood Screening Facility, Harvard Medical School, 2010):
The campaign covered roughly 52,000 compounds. About 4,300 (8.3%) were called active. Rule as the data show it: active = survival mostly below about 52% (no sharp cut-off); inactive = mostly above about 56%. Some of the results follow.

These compounds were tested on DeltatarO mutant (assay: growth inhibition of S. aureus wild type versus tarO mutant, primary screen, teichoic acid synthesis inhibitors, RN4220, OD600 (AID 463173)). Settings: OD600, 18 h, stronger effect = lower value, screened at 18.75 µg/mL (by protocol).
In the case of `O=c1cc(COc2ccccc2Cl)nc2scc(-c3ccccc3)n12`, the survival is reported as inactive: 81%.
For `O=C(Nc1ccccc1Cl)N1CCC2(CC1)Oc1ccccc1C(=O)N2Cc1ccc(F)cc1`, the survival was inactive: 64%.
In the case of `C=CCc1c(C)nc2ccccc2c1Cl`, the survival is reported as inactive: 87%.
`CCc1ccc(NC(=O)c2cnc3c(-c4ccccc4)c(C)nn3c2C)cc1` was tested, and the survival was inactive: 94%.
With `CC(=O)c1ccc(NC(=O)c2ccc(-c3nc(CSc4ccc(C)cc4)c(C)o3)cc2)cc1` the survival was inactive: 84%.
In the case of `COc1cc2c(cc1OC)C(CC(=O)Nc1ccccc1)C(=O)NN=C2C` (configuration not stated), the survival is reported as inactive: 103%.
For `COc1cccc(Cn2c(C)c(CNCc3cccc(C)c3)c(C(=O)O)c2C)c1`, the survival was inactive: 115%.
For `Cc1ccc(NC(=O)CSc2nc3ccc(NC(=O)c4ccco4)cc3s2)cc1`, the survival was inactive: 72%.
`O=S(=O)(NCc1ccccc1)c1ccc(S(=O)(=O)N2CCCCCC2)cc1` was tested, and the survival was inactive: 75%.
`COc1ccc(C2CC(=O)c3cc(-c4nc(-c5cccc([N+](=O)[O-])c5)cs4)c(=O)n(-c4cccc(C)c4)c3C2)cc1` (configuration not stated) was tested, and the survival was inactive: 59%.
With `COC(=O)c1c(NC(=O)Cc2coc3cc(C)cc(C)c23)sc2c1CCC2` the survival was inactive: 75%.
In the case of `COc1cc(C(=O)NCc2ccc3c(c2)CCN3C(=O)c2ccc(Cl)cc2)cc(OC)c1OC`, the survival is reported as inactive: 97%.
For `Cc1ccc(NC(=O)CSc2nc(=O)n(Cc3ccccn3)c3c2CCC3)cc1F`, the survival was inactive: 80%.
With `COCCNC(=O)c1c(NC(=O)c2cc(=O)c3cc(C)cc(C)c3o2)sc2c1CCCC2` the survival was inactive: 72%.
In the case of `CCN(CC)c1ccc(-c2nc(NC(C)=O)c3c(=O)oc4ccccc4c3n2)cc1`, the survival is reported as inactive: 98%.
For `COc1ccc(CCNC(=O)c2ccc(Cn3c(=O)c4cccn4c4cccnc43)cc2)cc1OC`, the survival was active: 48%.
With `Cc1[nH]c(=O)[nH]c(=O)c1Cc1cccc2ccccc12` the survival was inactive: 73%.
`Cc1cc(C)n2nc(CNS(=O)(=O)c3cccc(Cl)c3)nc2n1` was tested, and the survival was inactive: 121%.
`Cc1cc(C(=O)N2CCN(c3ccccc3F)CC2)c2c(C)nn(-c3ccccc3)c2n1` was tested, and the survival was inactive: 130%.
In the case of `COc1ccc(NC(=O)N(CCN(C)C)Cc2cc3cc(OC)ccc3[nH]c2=O)cc1`, the survival is reported as inactive: 104%.
With `Cc1cc(C)c2oc(-c3cccc(NC(=O)c4cccc(F)c4)c3C)nc2c1` the survival was inactive: 72%.
In the case of `CCCCN(C)C(=O)CSc1c2c(nc3ccc(Cl)cc13)CCCC2`, the survival is reported as active: -2%.
In the case of `CCC(C)NC(=O)c1ccc(CNS(=O)(=O)c2ccc3c(c2)C(C)(C)C(=O)N3C)cc1` (configuration not stated), the survival is reported as inactive: 75%.
With `O=C(CSc1nc2ccccc2nc1Cc1ccccc1)N1CCc2ccccc21` the survival was inactive: 76%.
In the case of `CCN(C(=O)c1ccco1)c1nc(CC(=O)Nc2ccc(Cl)cc2)cs1`, the survival is reported as inactive: 90%.
`CCc1ccccc1NC(=O)Cn1c(=O)n(CCc2ccccc2)c(=O)c2sc3ccccc3c21` was tested, and the survival was inactive: 71%.
`N#C/C(=C\c1ccc(N2CCOCC2)o1)C(=O)NCC1CCCO1` (configuration not stated) was tested, and the survival was inactive: 88%.
`COc1ccc(-c2c3c(nc4sc(C(=O)Nc5cccc(OC)c5)c(N)c24)CC(C)(C)CC3=O)cc1` was tested, and the survival was inactive: 60%.
In the case of `COc1ccc(N(C)C(=O)Cn2cnc3sc(C)c(S(=O)(=O)N4CCN(c5ncccn5)CC4)c3c2=O)cc1`, the survival is reported as inactive: 80%.
With `Cc1ccc(-c2nc3cccc(C)n3c2Nc2ccc3c(c2)OCCO3)cc1` the survival was inactive: 85%.
`O=C(NCCS(=O)(=O)N1CCN(c2cccc(Cl)c2)CC1)C(c1ccccc1)c1ccccc1` was tested, and the survival was inactive: 72%.
In the case of `CCOCCCn1c(=N)c(C(=O)NC2CCCCC2)cc2c(=O)n3ccccc3nc21`, the survival is reported as inactive: 67%.
In the case of `CCc1nn(CC(=O)NCc2ccccc2)c(=O)c2cccn12`, the survival is reported as inactive: 69%.
`Cc1ccc(Cl)cc1NC(=O)CN1C=NS(=O)(=O)c2ccccc21` was tested, and the survival was inactive: 73%.
For `Cc1cccc(Cn2c(=O)n(-c3cc(C)cc(C)c3)c(=O)c3oc4ccccc4c32)c1`, the survival was inactive: 71%.
`CCc1nn(CCCC(=O)NCc2ccccc2OC)c(=O)c2cc3occc3n12` was tested, and the survival was inactive: 84%.
In the case of `Cc1cc(C)c2c(n1)nn1c(C)c(CCC(=O)Nc3cccc(C)c3C)c(C)nc21`, the survival is reported as inactive: 88%.
In the case of `O=c1c2ccccc2nc(SCc2ccccc2)n1Cc1ccco1`, the survival is reported as inactive: 63%.
In the case of `Cc1ccc(Cl)cc1N1CCN(C(=O)C2CCN(S(=O)(=O)c3cn(C)cn3)CC2)CC1`, the survival is reported as inactive: 98%.
In the case of `Cc1cccc(N2CCN(CCCNC(=O)Cn3ncc4c([nH]c5ccccc54)c3=O)CC2C)c1` (configuration not stated), the survival is reported as inactive: 103%.
For `Cc1c(C(=O)N2CCCCCC2)c(S(=O)(=O)Nc2cccc(C#N)c2)c(C)n1C`, the survival was inactive: 85%.
With `Cc1cc(=O)[nH]c2nnc(SCc3ccccc3F)n12` the survival was inactive: 71%.
`CC1(C)N=C(SCc2ccc(Cl)cc2)c2ccccc2N1` was tested, and the survival was inactive: 100%.
For `O=C(NCCc1ccccc1)C(=O)NCC(c1cccs1)S(=O)(=O)c1cccs1` (configuration not stated), the survival was inactive: 99%.
With `Cc1ccc(S(=O)(=O)N2CCN(Cc3cc(=O)n4nc(-c5ccccc5Cl)sc4n3)CC2)cc1` the survival was inactive: 74%.
With `Cn1c(=O)cc(SCC(=O)NCc2ccc(F)cc2)c2cc(Cl)ccc21` the survival was inactive: 88%.
In the case of `CCOC(=O)c1c(C)[nH]c(C)c1S(=O)(=O)N1CCC(C(=O)Nc2ccccc2CC)CC1`, the survival is reported as inactive: 64%.
`COc1ccc(-c2cn3c(n2)sc2cc(C(=O)Nc4ccc(C)c(Cl)c4)ccc23)cc1` was tested, and the survival was inactive: 69%.
`CC1=C(c2ccc(C(C)C)cc2)S(=O)(=O)N=C1N1CCC(C(=O)Nc2ccc(C)cc2)CC1` was tested, and the survival was inactive: 76%.
For `CCOc1ccc(-c2nnc(SCC(=O)Nc3ccc(C)cc3C)o2)cc1`, the survival was inactive: 78%.
In the case of `COC(=O)c1ccc(NC(=O)n2ncc3c(C)cccc32)cc1`, the survival is reported as inactive: 76%.
For `CCOC(=O)c1[nH]c2c(c1Cc1ccccc1C)C(=O)CC(c1ccccc1)C2` (configuration not stated), the survival was inactive: 92%.
With `CCc1ccc(NC(=O)c2cnn(-c3c(C)cccc3C)c2C2CCN(C(=O)OC(C)(C)C)CC2)cc1` the survival was inactive: 89%.
For `CCn1c(C(=O)NCc2ccccc2Cl)cc2sc(Cl)cc21`, the survival was inactive: 63%.
With `CC(Oc1ccccc1)C(=O)Nc1ccc(C(=O)OCc2cc(=O)n3nc(C4CC4)sc3n2)cc1` (configuration not stated) the survival was inactive: 64%.
For `O=C(CCC(=O)N1Cc2ccccc2Oc2ncccc21)NCc1cccc(Cl)c1`, the survival was inactive: 75%.
For `COc1ccc(Cc2nc3ccccc3n2Cc2ccccc2C)cc1`, the survival was active: -3%.
In the case of `Cc1cc2[nH]c(=O)c(=O)[nH]c2cc1S(=O)(=O)N1CCN(c2ccccc2)CC1`, the survival is reported as inactive: 86%.
In the case of `O=C(NCc1cccc(Cl)c1)c1ccc(NC(=O)N2CCSc3ccccc32)cc1`, the survival is reported as inactive: 57%.
With `COc1ccc(-c2cc3ccc(O)c(CN4CCCC(C)C4)c3oc2=O)cc1OC` (configuration not stated) the survival was inactive: 62%.
`COc1cc(S(=O)(=O)N(CC(=O)Nc2c(C)cccc2C)CC2CCCO2)ccc1-n1cnnn1` (configuration not stated) was tested, and the survival was inactive: 73%.
`CCc1ccc(-n2nc(CO)c(C(=O)NCc3ccccc3Cl)n2)cc1` was tested, and the survival was inactive: 49%.
In the case of `Cn1c(=O)c(=O)n(C)c2cc(NS(=O)(=O)c3ccc(Br)cc3)c(Cl)cc21`, the survival is reported as inactive: 61%.
In the case of `COc1ccc(NC(=O)N2CCCn3nc(C)cc32)cc1OC`, the survival is reported as inactive: 93%.
With `CCCCNC(=O)CSc1nc2cc3c(cc2c(=O)n1Cc1ccc(C(=O)NCCc2ccc(OC)c(OC)c2)cc1)OCO3` the survival was inactive: 85%.
With `N#Cc1c(Nc2ccccc2)sc(C(=O)c2cccs2)c1N` the survival was inactive: 75%.
For `O=C(CN1C(=O)CCn2nc(-c3ccccc3)cc21)NCc1ccccc1`, the survival was inactive: 106%.
`c1ccc(OCCCn2nnc(-c3ccncc3)n2)cc1` was tested, and the survival was inactive: 87%.
`COc1cccc(CNC(=O)C(=O)NCC(c2ccco2)S(=O)(=O)c2ccccc2)c1` (configuration not stated) was tested, and the survival was inactive: 81%.
In the case of `Cc1ccc(Cc2c(C)nc3nc(SCC(=O)NCCC(C)C)nn3c2C)cc1`, the survival is reported as inactive: 70%.
With `COc1ccc(NC(=O)Cn2c(=O)n(-c3ccc(C)cc3)c(=O)c3c2c2cc(C)ccc2n3C)cc1` the survival was inactive: 125%.
With `Cc1nn(C)c(C)c1S(=O)(=O)N(CC(=O)Nc1ccc(F)cc1F)c1ccc(C(C)C)cc1` the survival was inactive: 94%.
With `CC1CCN(c2nc3ccc(C(=O)NC(C)C)cc3s2)CC1` the survival was inactive: 74%.
In the case of `Cc1ccc(CN2C(=O)SC(Nc3ccc(Cl)cc3)C2=O)cc1` (configuration not stated), the survival is reported as active: 30%.
With `COc1cccc(CNC(=O)c2sc3ncccc3c2-n2c(C)ccc2C)c1OC` the survival was inactive: 107%.
In the case of `O=C(Cn1nc(Cc2cccnc2)c2ccccc2c1=O)Nc1ccc(F)c(Cl)c1`, the survival is reported as inactive: 74%.
For `COc1ccc(-c2noc(CSc3nc4ccc(C)cc4[nH]3)n2)cc1`, the survival was active: 39%.
With `CCC(C(=O)Nc1cc(C(F)(F)F)ccc1Cl)n1nc(C)c2sc3ccccc3c2c1=O` (configuration not stated) the survival was inactive: 74%.
In the case of `COc1ccc(C(=O)NCC(c2ccc(Cl)cc2)N2CCCCC2)cc1` (configuration not stated), the survival is reported as inactive: 63%.
`O=C(Cn1cnc2onc(-c3ccc(F)cc3)c2c1=O)N1CCN(c2ccc(F)cc2)CC1` was tested, and the survival was inactive: 72%.
`COc1ccccc1CNC(=O)c1cnc2sc(N3CCCCC3)nn2c1=O` was tested, and the survival was inactive: 66%.
For `COc1cccc(C2C(C(=O)Nc3ccccc3OC)=C(C)Nc3nc(-c4ccco4)nn32)c1` (configuration not stated), the survival was inactive: 69%.
With `COc1ccc(-n2nc(C(=O)NCCc3ccc(OC)c(OC)c3)c3c4ccccc4n(C)c3c2=O)cc1` the survival was inactive: 89%.
`CCC(Sc1nnc2c3ccccc3n(CC)c2n1)C(=O)Nc1ccc(NC(C)=O)cc1` (configuration not stated) was tested, and the survival was inactive: 104%.
With `Cc1ccccc1-c1nc(CS(=O)(=O)CC(=O)NCCCc2ccccc2)c(C)o1` the survival was inactive: 118%.
With `CC(=O)NC1C(=O)N(c2ccccc2)N=C1C` (configuration not stated) the survival was inactive: 87%.
In the case of `COc1cc(NC(=O)CCc2nc3cccnc3n2Cc2cccs2)cc(OC)c1OC`, the survival is reported as inactive: 78%.
